Whole data set: some 110,000 compounds, median “z-score” near -0.1, cut for the highest 2% near 2. This is one part of the list.
The molecules below were run against Metabotropic glutamate receptor 8 (Rattus norvegicus) (UniProt P70579) (assay: rat mGluR8 modulators via GIRK flux, primary screen, cell-based, thallium flux, HTS (AID 488969)). Settings: HEK293 rat mGluR8, GIRK (G protein-gated inwardly rectifying potassium channel) thallium flux, FluoZin2; at 10 µM; stronger effect = higher value; submaximal glutamate (EC20) added with thallium.
Sequence of UniProt P70579 (P70579 whole entry, looked up): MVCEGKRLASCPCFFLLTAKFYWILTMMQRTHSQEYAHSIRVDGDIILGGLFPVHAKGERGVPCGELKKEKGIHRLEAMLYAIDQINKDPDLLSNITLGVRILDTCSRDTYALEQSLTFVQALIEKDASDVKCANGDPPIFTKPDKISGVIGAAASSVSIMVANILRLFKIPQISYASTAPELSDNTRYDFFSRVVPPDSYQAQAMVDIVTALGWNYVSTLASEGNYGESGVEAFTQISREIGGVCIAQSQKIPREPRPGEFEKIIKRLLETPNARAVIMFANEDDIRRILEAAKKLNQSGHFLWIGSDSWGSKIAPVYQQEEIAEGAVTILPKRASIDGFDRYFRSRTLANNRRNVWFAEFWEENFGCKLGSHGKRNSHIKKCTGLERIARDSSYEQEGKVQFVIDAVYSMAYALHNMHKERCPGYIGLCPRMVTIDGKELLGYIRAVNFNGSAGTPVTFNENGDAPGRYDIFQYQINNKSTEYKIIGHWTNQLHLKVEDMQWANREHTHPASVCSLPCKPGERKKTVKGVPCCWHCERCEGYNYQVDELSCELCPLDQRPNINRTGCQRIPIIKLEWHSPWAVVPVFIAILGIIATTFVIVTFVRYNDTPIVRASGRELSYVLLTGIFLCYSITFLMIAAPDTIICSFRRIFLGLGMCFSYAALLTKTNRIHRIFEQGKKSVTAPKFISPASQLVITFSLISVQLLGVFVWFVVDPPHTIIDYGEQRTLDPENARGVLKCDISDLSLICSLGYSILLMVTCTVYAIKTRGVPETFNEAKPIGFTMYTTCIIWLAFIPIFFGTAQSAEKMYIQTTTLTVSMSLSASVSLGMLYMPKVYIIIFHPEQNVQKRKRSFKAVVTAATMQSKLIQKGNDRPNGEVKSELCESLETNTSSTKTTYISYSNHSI

SMILES	z-score
O=C(CCCOc1ccc(Cl)cc1Cl)Nc1ccncc1	2.21
CCCCN(CCCC)c1cc(C)nc(-c2ccccc2O)n1	-0.125
COc1cc(Nc2nc3ccccc3n3nnnc23)cc(OC)c1OC	-0.0435
CCC(=O)c1c[nH]c(C(=O)NCCCN2CCOCC2)c1	-0.121
COc1ccc(N2CCN(C(=O)c3ccc(C)c(Cl)c3)CC2)cc1	-1.08
N#CC1=C(SCC(=O)c2cc3ccccc3oc2=O)NC(=O)C(C#N)C12CCCC2 (stereo not drawn)	0.149
CCOC(=O)N1CCN(C(=O)CCn2c(=S)[nH]c3cc(OCC)c(OCC)cc3c2=O)CC1	-0.56
Cc1ccc(S(=O)(=O)CCC(=O)NCc2ccc(Cl)cc2)cc1	-0.273
CN(c1nc2c(c(=O)n(C)c(=O)n2C)n1CC(=O)c1ccccc1)C1CCCCC1	-1.59
Cn1c(CNS(=O)(=O)c2ccc(F)cc2)n[nH]c1=S	-0.234
Cc1[nH]c2ccccc2c1C(=O)Cn1c(=O)oc2ccccc21	0.0211
Cc1csc(SCc2ccc(C(=O)O)cc2)n1	-0.165
S=C(NCCC(c1ccccc1)c1ccccc1)Nc1ccccc1Cl	0.298
O=C(Nc1cnc2sccn2c1=O)c1ccccc1Cl	-0.151
Cc1cc(C)[n+](-c2ccc(F)cc2)c2[nH]c(=O)[nH]c(=O)c12	0.407
COc1ccc(C2NC(=O)c3ccccc3O2)cc1OC (stereo not drawn)	-0.511
Cc1nc2ccccc2c2c1C(=O)N(C(C)C)C2=O	-0.214
CS(=O)(=O)N(CC(=O)Nc1ccccc1C(=O)NCc1ccco1)c1ccc2c(c1)OCCO2	-0.0509
Cc1cc(C)c2c(=O)[nH]c(SCC(=O)NCCc3ccccc3)nc2n1	-0.199
CN(c1ccc(C(=O)Nc2ccccc2C(F)(F)F)cc1)S(C)(=O)=O	0.514
Cc1cccc(NC(=O)c2ccc(C3SCC(=O)N3CCc3ccccc3)cc2)c1C (stereo not drawn)	0.401
Cc1noc(C)c1S(=O)(=O)N1CCCC(C(=O)Nc2ccc(Cl)cn2)C1 (stereo not drawn)	0.645
O=C(O)C1C2CCC(C2)C1C(=O)Nc1cc(F)ccc1F (stereo not drawn)	-0.346

SMILES	z-score
COc1cc(C(Nc2ccccn2)c2ccc3ccc(C)nc3c2O)cc(OC)c1O (stereo not drawn)	-0.746
S=c1nn[nH]n1C12CC3CC(CC(C3)C1)C2	2.46
COc1cccc(/C=N/n2cnc3ccccc32)c1OC	-0.147
CCOc1ccc(Cc2nnc(N)s2)cc1OCC	0.068
O=C(CC1Nc2cccc3cccc(c23)NC1=O)Nc1ccccc1 (stereo not drawn)	-0.474
Cc1ccc(C(=O)c2cn[nH]c2-c2cc(Cl)ccc2O)cc1	-0.48
CCOC(=O)C1CCN(C(=O)CN(Cc2ccccc2)S(C)(=O)=O)CC1	0.143
COc1cccc(C(=O)N2CCN(C(=O)c3cccc4ccccc34)CC2)c1OC	0.246
COC(=O)C(CCSC)NC(=O)C12CC3CC(CC(C3)C1)C2 (stereo not drawn)	-0.128
CC(C)(C)c1csc(NC(=O)Cn2c(=O)oc3ccccc32)n1	-0.25
CCc1ccc(OCC(=O)NNC(=O)CSc2nnc(-c3ccc(C)cc3)n2C)cc1	-0.485
Cc1cc(NC(=O)CSc2nc(-c3cccnc3)ccc2C#N)no1	0.399
Cc1cc(C)n(C2CC(=O)N(c3ccccc3)C2=O)n1 (stereo not drawn)	0.0838
O=c1sc2ccccc2n1COc1ccccc1	-1.03
COC(=O)C1CCN(C(=O)C2CCCCC2)CC1	-0.248
CC(C)(C)NC(=O)CCN1CCOCC1	-0.348
COc1ccc(N(CC(=O)NCC2CCCO2)S(=O)(=O)c2ccc(C)cc2)cc1OC (stereo not drawn)	0.0521
Cc1sc2nc(CSc3ccccc3)nc(N3CCN(C)CC3)c2c1C	-0.155
Clc1ccc(Oc2nc(Oc3ccc(Cl)cc3)nc(N3CCOCC3)n2)cc1	-0.0696
NC(=O)C1CCN(C(=O)c2cc3ccccn3n2)CC1	0.194
CC(NC(=O)c1ccc(Br)cc1)c1ccc2c(c1)CCCC2 (stereo not drawn)	1.4
Cc1cc(C)c(C#N)c(SCC(=O)NN2CC(=O)N(c3ccccc3F)CC2=O)n1	-0.089
CCOc1ccc(C(=O)OCC(=O)NCc2ccco2)cc1OCC	-0.0124

SMILES	z-score
COc1ccc(NC(=O)COC(=O)[C@@H]2CCCN2C(=O)c2cccs2)cc1	-0.22
CC1Cc2ccccc2N1CC(=O)Nc1ccc2c(c1)OCO2 (stereo not drawn)	-0.661
Cc1ccc(-n2nc(C)c3c2OC(N)=C(C#N)C3c2ccoc2)cc1 (stereo not drawn)	0.469
CC(C)C(c1nnnn1C1CCCC1)N1CCCCC1 (stereo not drawn)	0.273
CCOC(=O)C1C(=O)CC(C)(O)C(C(=O)OCC)C1c1ccc2c(c1)OCO2 (stereo not drawn)	0.354
Cc1ccc(C(=O)NCC(=O)OCC(=O)Nc2cc(C)c(C)cc2[N+](=O)[O-])cc1	-0.241
O=C(Nc1cccc(S(=O)(=O)N2CCOCC2)c1)c1ccc(N2CCOCC2)c([N+](=O)[O-])c1	-0.181
CC(=O)NS(=O)(=O)c1ccc(NC(=O)CN2C(=O)C3C4C=CC(C4)C3C2=O)cc1 (stereo not drawn)	-1.16
CC(C)C[C@H](NC(=O)OC(C)(C)C)c1nnc(SCc2cccc(F)c2)o1	-0.53
Cc1coc2c(C)c3oc(=O)cc(-c4ccccc4)c3cc12	-0.31
Cc1cccc(NC(=O)COc2ccccc2C)n1	0.0201
O=C(Cc1ccccc1)N1CCC(c2nc3ccccc3[nH]2)CC1	-0.282
Cc1ccc(NC(=O)CSc2nnc(NC(=O)c3ccc(S(=O)(=O)N4CCOCC4)cc3)s2)cc1	-0.354
COC(=O)C1=C(NC(=O)c2cccc(OC)c2)CCS1	-0.151
Cc1cc(C)c(NC(=O)CN2C(=O)NC3(CCOc4ccccc43)C2=O)c(C)c1 (stereo not drawn)	0.138
O=C(O)Cc1ccc(NC(=O)c2cccs2)cc1	-0.122
CC(NC(=O)COC(=O)/C=C/c1cccc(C(F)(F)F)c1)c1ccccc1 (stereo not drawn)	-0.0485
COc1ccc(/C=C(\NC(=O)c2ccc(OCC(C)C)cc2)C(=O)OCc2ccco2)cc1	-0.0216
COc1ccc2[nH]c(=O)c(CN(CCc3cccc(C)c3)C(C)=O)cc2c1	-0.529
Cc1cc2c(cc1C)CSC(c1ccccc1OC(=O)C(C)C)SC2	-0.312
CC1CN(S(=O)(=O)c2ccccc2)CC(C)O1 (stereo not drawn)	0.256
O=C(O)CCCn1nc(C(F)(F)F)c2c1CCCCC2	-0.241
CCCCC(=O)Nc1ncc(Br)s1	-0.0496

SMILES	z-score
CCCCC(C(=O)NC(C)(C)C)N(Cc1ccco1)C(=O)c1snc(C(N)=O)c1N (stereo not drawn)	-0.117
COc1ccccc1NS(=O)(=O)c1ccc(Cl)c(NC(=O)C(C)N2C(=O)c3ccccc3C2=O)c1 (stereo not drawn)	-0.268
O=C(NC(=S)Nc1cccc(NC(=O)c2ccc(Cl)cc2Cl)c1)c1cccs1	-0.0725
Cc1ccc(C(=O)N2CCN(c3ncccn3)CC2)cc1S(=O)(=O)N1CCCCC1	0.0638
Cc1ccc(C)c(OCC(=O)Nc2ccc(S(=O)(=O)Nc3ccccn3)cc2)c1C	-2.3
NNC(=O)C1CC1c1ccccc1 (stereo not drawn)	-0.129
COc1ccc(NC(=O)Cn2c(=O)n(-c3ccc(OC)cc3OC)c(=O)c3c(C)c(C)sc32)cc1	-0.469
O=[N+]([O-])c1ccc2c(c1)ncn2-c1ccccc1	0.0313
COc1ccc(CCNS(=O)(=O)c2cn(C)c(=O)n(C)c2=O)cc1OC	-0.0888
Cc1ccc(/C=C2\SC(N3CCN(C(c4ccccc4)c4ccccc4)CC3)=NC2=O)o1	0.00418
COc1ccc2nc(COC(=O)c3ccco3)c(C(C)=O)[n+]([O-])c2c1	0.0313
CCN1CCN(c2ccc(NC(=O)c3ccc4c(c3)OCO4)cc2)CC1	-0.0909
CCN1CCc2nc(NC(=O)c3ccccc3)sc2C1	0.0235
CC(C)C(=O)Nc1ccc(C(=O)NNC(=O)c2cccs2)cc1	0.224
O=C(Oc1ccccc1N1C(=O)CCC1=O)c1ccco1	0.258
CCN(CC)C(=O)COc1ccc(S(=O)(=O)N2CCOCC2)cc1	-0.144
COc1ccc2nc(NCCCO)[nH]c2c1	0.653
CC(C)(C)NC(=O)C1CCC(C)(C(=O)O)C1(C)C (stereo not drawn)	1.19
CCNC(=S)NS(=O)(=O)c1ccc(Cl)cc1	-0.126
Cc1oc(-c2ccccc2)nc1CC(=O)O	-0.979
COC(=O)c1ccccc1NC(=S)NC(=O)c1ccc(C)cc1	2.94
COc1ccc(NC(=O)NC2CCN(C(C)C)CC2)c(OC)c1	-0.212
O=C(CN1CCCCC1)N1CCCc2c1c(=O)oc1ccc(OCc3ccccc3)cc21	0.154

SMILES	z-score
COC(=O)CCc1c(C)[nH]c(=S)[nH]c1=O	0.108
COc1ccc(CNc2ccc(-c3ccccc3OC)nn2)cc1	-0.17
CCC(=O)NCC(=O)OCC(=O)c1ccccc1	-0.0257
COc1cc(/C=N\Nc2ccc([N+](=O)[O-])cc2)ccc1OCC(=O)Nc1ccc(C)c(C)c1	-0.212
Cc1cc(/C=N/n2cnnc2)c(C)n1-c1ccc(Cl)cc1	-0.0755
CC1CCN(C(=O)CN(C2CCCCC2)S(C)(=O)=O)CC1	0.23
Cc1ccccc1N=C1NC(=O)CS1	0.516
Cc1ccc2nc(CSc3nc(C)cc(C)c3C#N)[nH]c2c1	-0.649
O=c1c2ccccc2nc(SCc2cccc(F)c2)n1Cc1ccco1	-0.373
COc1ccc(-c2noc(CCCC(=O)Nc3ccc(C(N)=O)cc3)n2)cc1	0.0356
O=c1[nH]c2ccccc2n1Cc1ccc(Cl)cc1	0.174
C1=CN2CCC1C(c1ccccc1)C2 (stereo not drawn)	2.05
c1ccc(N(c2ccccc2)c2nc(-n3ccnc3)nc(-n3ccnc3)n2)cc1	-0.953
CCOC(=O)c1ccc(NC(=O)CN2C(=O)C3C4C=CC(C4)C3C2=O)cc1 (stereo not drawn)	0.107
O=C(Nc1cccc2ncccc12)c1ccc2c(c1)OCCO2	1.16
COc1ccc(Nc2nc(N)nc(CN(C)C3CCCCC3)n2)cc1	-0.422
CN1C(=S)SC(C)(C)C1/[N+]([O-])=C/c1cccnc1 (stereo not drawn)	0.179
COc1ccccc1-n1c(SCC(=O)Nc2ccc3c(c2)OCO3)nc2c(c1=O)SCC2	-0.513
CCn1c2c(c3cc(OCC(C)C)ccc31)CCCC2=O	0.201
CC(=O)n1nc(-c2ccco2)nc1SCc1ccccc1	0.38
CC(=O)Nc1nnc(-c2ccc(Cl)s2)o1	-0.0573
